# Out of some 410,000 compounds screened, about 5,000 (1.2%) were called active. The inconclusive results got no clear call from the source; some entries with a clear call stand among them for comparison. Calls follow the shape of the dose curve; as a rule, active = well fitted inhibition curve with a large enough effect; inconclusive = small, poorly fitted or top-dose-only effect; inactive = no such curve, though single readings can be large or run the other way. Potencies beside an inconclusive call are fits to weak or partial responses and may not hold up.
# Assay: qHTS for Inhibitors of TGF-b; also: nearly all actives have a fitted effect of over 65% in size
# Conditions: HepG2 CAGA-GFP TGF-b/SMAD3 reporter, GFP fluorescence, 18 h, TGF-beta stimulated, 500 pg/mL final; series mostly up to 46.1 µM
# Procedure, shortened: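 Cell-based qHTS in HEPG2 carrying a CAGA-GFP Smad reporter; compounds added before 500 pg/mL final TGF-beta, 18 h incubation at 37 degrees C, GFP fluorescence quantified per cell by imaging cytometry.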
# Potency is read from the fitted curve at half-maximal effect; tags tell the direction and shape of the fitted curve.
row,Structure (SMILES),Potency
1,CC(SCC(=O)O)c1nc2ccccc2[nH]1 (centres undefined),inactive
2,O=C(COc1ccc2c3c(c(=O)oc2c1)CCC3)N[C@@H](CSCc1ccccc1)C(=O)O,inactive
3,Cc1ccccc1OCCC(=O)OCC(=O)Nc1ccc(N2CCOCC2)cc1,inactive
4,CC1CCc2c(nc3sc4c(c3c2N)CCCC4)C1 (centres undefined),"inconclusive: 22.4 µM [inhibitor, single point]"
5,Cc1ccc(NC(=O)CN(Cc2ccco2)Cc2ccccc2O)cc1C,"inconclusive: 22.4 µM [inhibitor, single point]"
6,Cc1cc(N/N=C/c2ccc(O)cc2O)nc(-c2ccccc2O)n1,"inconclusive: 11.2 µM [inhibitor, partial curve, poor fit]"
7,O=C(CSc1nccn(-c2cccc(F)c2)c1=O)Nc1ccc(Cl)cc1F,inactive
8,CC(=O)Nc1ccc(N2CCOCC2)c(C(=O)Nc2cccc(C)c2)c1,"inconclusive: 10 µM [inhibitor, partial curve]"
9,Cc1ccn2c(=O)nc(SCC(=O)N3CCCC3)nc2c1,"inconclusive: 35.5 µM [inhibitor, single point]"
10,O=C(Nc1ccc(Oc2ccccc2)cc1)c1ccc2nc([C@@H]3O[C@H](CO)[C@H](O)[C@H](O)[C@H]3O)[nH]c2c1,inactive
11,CCc1nc2ccc(C(=O)N3CCN(c4ccccc4F)CC3)cc2nc1CC,"inconclusive: 35.5 µM [inhibitor, single point]"
12,Cc1ccc(Cl)cc1N1CCN(C(=O)Cn2cnc3onc(-c4ccc(F)cc4)c3c2=O)CC1,inactive
13,CCCc1ccc(-c2ccc(F)c(N)c2)nc1,"inconclusive: 6.31 µM [inhibitor, single point]"
14,Cc1ccc2cc(C)c3nnc(SCC(=O)NCc4ccco4)n3c2c1,inactive
15,COc1ccccc1S(=O)(=O)Cc1ccc(C(=O)NCc2cccs2)o1,inactive
16,Cc1ccc(NC(=O)C2SC(=Nc3ccccc3)C(C(=O)Nc3ccc(Cl)cc3)=C2N)cc1 (centres undefined),inactive
17,O=C(/C=C/c1c(F)cccc1Cl)c1ccc(F)cc1,"inconclusive: 35.5 µM [inhibitor, single point]"
18,Cc1ccc(SC[C@H](c2ccccc2)N2CCN(CC(C)C)CCC2=O)cc1,inactive
19,CCOc1ccc(NC(=O)Cn2c(=O)n(CCc3ccccc3)c(=O)c3c4c(sc32)CCCC4)cc1,inactive
20,O=C(CCCCCn1c(=S)[nH]c2cc3c(cc2c1=O)OCO3)N1CCN(C2CCCCC2)CC1,"inconclusive: 11.2 µM [inhibitor, partial curve, poor fit]"
21,CCO[C@@H]1OC(C(=O)NC2CC2)=C[C@H](C)[C@H]1CCCO,"inconclusive: 5.62 µM [inhibitor, single point]"
22,OCC[C@@H]1C[C@H](O)[C@@H](O)[C@]2(CCCc3ccccc3O2)O1,"inconclusive: 5.62 µM [inhibitor, single point]"
23,Cc1cc(C)c(C)c(SCC(=O)Nc2oc(C)c3c(C)n[nH]c(=O)c23)c1C,"inconclusive: 35.5 µM [inhibitor, single point]"

row,Structure (SMILES),Potency
1,O=C(CNC(=O)c1ccc2ccccc2c1)OCC(=O)N1CCN(S(=O)(=O)c2ccc3ccccc3c2)CC1,"inconclusive: 2.51 µM [inhibitor, partial curve, poor fit]"
2,CS(=O)(=O)N1CCN(C/C=C/c2ccccc2)CC1,inactive
3,CCC1(C)NC(=O)N(/N=C/c2cc(OC)c(O)c(OC)c2)C1=O (centres undefined),"inconclusive: 35.5 µM [inhibitor, single point]"
4,Cc1ccc(-n2nc3cc(C)c(NC(=O)c4ccc(-c5ccccc5)o4)cc3n2)cc1,inactive
5,O=C(NCCc1c[nH]c2ccccc12)C(=O)NCC1OCCN1S(=O)(=O)c1cc(F)ccc1F (centres undefined),"inconclusive: 22.4 µM [inhibitor, single point]"
6,CCCCCCSc1ccc(-c2nc3cc(C)ccn3c2NC2CCCCC2)cc1,"inconclusive: 35.5 µM [inhibitor, single point]"
7,Cn1c(N/N=C/c2ccccc2)nc2sc3c(c2c1=O)CCC3,inactive
8,COc1ncnc2c1ncn2CC1COC(C)(C)O1 (centres undefined),inactive
9,Cc1cc(C)c(S(=O)(=O)Nc2ccc3oc(C)c(C(=O)OC(C)C)c3c2)cc1C,"inconclusive: 22.4 µM [inhibitor, single point]"
10,CCCc1ccc(C2C3=C(CC(C)(C)CC3=O)NC3=C2C(=O)c2ccccc23)cc1 (centres undefined),"inconclusive: 20 µM [inhibitor, partial curve, poor fit]"
11,COc1cc(NC(=O)c2ccc(COc3ccccc3Br)o2)cc(OC)c1OC,inactive
12,COc1ccc(NC(=O)Nc2cccc3c2O[C@H](CN(C)S(=O)(=O)c2ccc(F)cc2)[C@@H](C)CN([C@H](C)CO)C3=O)cc1,"inconclusive: 0.891 µM [inhibitor, partial curve, poor fit]"
13,O=C1N=c2ccccc2=C1c1sc(Nc2cccc(O)c2)nc1O,"inconclusive: 11.2 µM [inhibitor, partial curve]"
14,COc1ccc(OC)c(-c2csc(NC(=O)CSc3ccc(Br)cc3)n2)c1,"inconclusive: 0.355 µM [inhibitor, full curve, poor fit]"
15,CC(C)C[C@H](NC(=O)c1[nH]cnc1C(=O)N[C@H](C)c1ccccc1)C(=O)OC(C)(C)C,"inconclusive: 20 µM [inhibitor, partial curve, poor fit]"
16,Nc1ccc(Cl)c(-c2nc3ncccc3o2)c1,"inconclusive: 35.5 µM [inhibitor, single point]"
17,CCCC(=O)Nc1cc2c(cc1C(=O)c1ccccc1)OCCO2,"inconclusive: 6.31 µM [inhibitor, single point]"
18,c1ccc(COc2cccc(CN3CCN(c4ccccn4)CC3)c2)cc1,"inconclusive: 35.5 µM [inhibitor, single point]"
19,Cc1ccc2nc(C)cc(Nc3ccc4c(c3)OCCO4)c2c1,"inconclusive: 22.4 µM [inhibitor, single point]"
20,O=C(COC(=O)CCSc1ccc(Cl)cc1)NCCc1ccccc1,inactive
21,COc1cc(Cn2c(=O)oc3ccc(C)cc32)ccc1OCCC(C)C,"inconclusive: 20 µM [inhibitor, single point]"
22,CC12CNCC(C)(CN(C(c3ccccc3)c3ccccc3)C1)C2,"inconclusive: 35.5 µM [inhibitor, single point]"
23,CCN(CC)CCCNc1nc2cc(OC)c(OC)cc2c2nc(-c3ccccc3)nn12,"inconclusive: 20 µM [inhibitor, single point]"

row,Structure (SMILES),Potency
1,CCCc1ccc(C(O)c2ncc(-c3cccc(OC)c3)[nH]2)cc1 (centres undefined),"inconclusive: 35.5 µM [inhibitor, single point]"
2,O=C1NC(=O)c2cc3ccccc3cc21,inactive
3,COc1ccccc1NC(=O)c1cc2cc(Br)ccc2cc1O,active: 5.62 µM
4,O=C1c2ccccc2C(Nc2cccnc2)N1Cc1ccc2c(c1)OCO2 (centres undefined),"inconclusive: 17.8 µM [inhibitor, single point]"
5,COc1ccc(OC)c2[nH]c(=O)c(CCNC(=O)c3ccc(S(=O)(=O)N(C)C)cc3)cc12,"inconclusive: 35.5 µM [inhibitor, single point]"
6,CCC1CSC(Nc2ccc(C(=O)/C=C/c3ccc(Oc4ccccc4)cc3)cc2)=N1 (centres undefined),"inconclusive: 35.5 µM [inhibitor, single point]"
7,CC(=O)c1ccc(C2CC34CN(Cc5cccc(Cl)c5)S(=O)(=O)C3CC2O4)cc1 (centres undefined),inactive
8,CC(C)C(NS(=O)(=O)c1ccccc1)C(=O)N1CCN(C(=O)c2ccco2)CC1 (centres undefined),inactive
9,CCN1CCN(c2ncc3c(n2)CCN(Cc2cc(Br)cs2)C3)CC1,inactive
10,O=C1c2ccccc2C(=O)N1CCCCN(C(=O)c1cc([N+](=O)[O-])cc([N+](=O)[O-])c1)c1ccc(Cl)cc1,inactive
11,O=C(NCC(c1ccc2c(c1)OCO2)N1CCOCC1)c1ccccc1 (centres undefined),inactive
12,Cc1nn(C)c2c1c(C(F)(F)F)cc(=O)n2CC(=O)NCc1ccc(OC(C)C)cc1,inactive
13,Cc1ccc(S(=O)(=O)N2CCC[C@H]2C(=O)OCCN2C(=O)c3ccccc3C2=O)cc1,inactive
14,Cc1ccc(-n2cc(CN3CCNC(=O)CC3)c(-c3cccc(C)c3)n2)cc1,"inconclusive: 0.282 µM [inhibitor, full curve, poor fit]"
15,O=C(CSc1ccsc1[N+](=O)[O-])N1CCN(c2ccc(Cl)cc2)CC1,"inconclusive: 5.01 µM [inhibitor, full curve]"
16,Cc1onc(-c2ccccc2)c1C(=O)Nc1nnc(COc2ccc(Cl)cc2)s1,"inconclusive: 15.8 µM [inhibitor, single point]"
17,O=C(NCC(=O)N1CCN(c2ccccc2F)CC1)c1ccco1,inactive
18,CCOc1ccc(CN2CCN(Cc3nc(C(C)C)cs3)CC2CCO)cc1 (centres undefined),"inconclusive: 0.891 µM [inhibitor, full curve, poor fit]"
19,Oc1ccc(-c2nc(-c3ccc(F)cc3)c(-c3ccncc3)[nH]2)cc1,"inconclusive: 35.5 µM [inhibitor, single point]"
20,COc1ccc(NC(=O)CN2CCN(S(=O)(=O)N3CCCCCC3)CC2)cc1,"inconclusive: 12.6 µM [inhibitor, single point]"
21,Cc1ccc(NC(=O)Nc2nnc(-c3ccncc3)s2)cc1,active: 11.2 µM
22,CSC1SCC2C(=O)N(C)C(C(C)C)C(=O)OCC(NC(=O)c3cnc4ccccc4n3)C(=O)NC(C)C(=O)N(C)C1C(=O)N(C)C(C(C)C)C(=O)OCC(NC(=O)c1cnc3ccccc3n1)C(=O)NC(C)C(=O)N2C (centres undefined),inactive
23,CCCCCCOc1ccc(/C=C/C(=O)Nc2sc3c(c2C(=O)OC)CCC3)cc1OC,active: 7.94 µM

# — PubChem BioAssay AID588855 (National Center for Advancing Translational Sciences (NCATS), 2011)
